Measured values: patent publication US20220098328A1, “ANTIBODIES TO M(H)DM2/4 AND THEIR USE IN DIAGNOSING AND TREATING CANCER” (NomoCan Pharmaceuticals LLC, priority 2017, published 2022)

Tested on: mouse Lewis Lung LL/2 cells
Assay: Cell-ELISA on intact cells
Format: cell-based
Settings: intact un-permeabilized mouse LL/2 cancer cells; antibody 5 μg/mL
Procedure: Cell-ELISA Methodology: 8,000-10,000 cells/well of a 96-well microplate were grown overnight. The next day, unbound cells were washed off with sterile 1×PBS. The cells in each well were fixed with freshly prepared 4% buffered paraformaldehyde (pH 7.2) for 1 hour followed by 3 washes with 1×PBS. The wells were then blocked with 5% BSA in PBS (100 μl/well) for 2 hours at room temperature. Microplate wells were then washed 5 times with 300 μl of ice cold 1×PBS. MAbs NMC-103, NMC-204 or NMC-303 at 1 μg/mL in 1% BSA/PBS were then incubated with various cancer or normal untransformed cells for 2 hours at room temperature. […] The reaction was stopped by addition of 50 μL of stop solution (ThermoFisher, Cat. No. SS04) to each well and absorbance of each well was measured at OD450 nm. The absorbance value of each experimental well was corrected for the absorbance value obtained from wells treated with isotype-identical mAbs included in each experiment. The results are thus expressed as “relative binding”.
In a 96-well microplate, 15,000 cells/well were cultured overnight. […] The reaction was stopped by addition of 50 μL of stop solution (ThermoFisher, Cat. No. SS04) to each well and absorbance of each well was measured at OD450 nm. The absorbance value of each experimental well was corrected for the absorbance value obtained from wells treated with isotype-identical mAbs included in each experiment.

B1: NMC-H103 (VH4/VK3): humanized NMC-103 variant, human IgG1, VH4 (SEQ ID NO:299) and VK3 (SEQ ID NO:297) (antibody, V domains shown)
VH: EVQLVESGGGLVQPGPSLRLSCTTSGFTFTHYYMSWVRQAPGKGLEWLGFIRNKAKGYTAEYSASVKGRFTISRDNSKSTLYLQMNSLRAEDTAVYYCARDIGDNWGQGTLVTVSS
VL: DIVMTQTPLSSPVTLGQPASISCRSSKNLLHSNGITYLYWYLQKPGQSPQLLISRVSNLASGVPDRFSGSESGTDFTLKISRVEAEDVGVYFCAQLLELPYTFGGGTKVEIK
modifications: human IgG1 constant regions lacking entries; mAb NMC-H103.VH4Heavy Chain Variable Region; mAb NMC-H103.VK3Light Chain Variable Region
  average OD reading, cell-based ELISA binding to intact cells: 3.51 OD450 (absorbance, unitless) [passage A] and 3.48 OD450 (absorbance, unitless) [passage B]

Not every entry of the source has a single result; some have several. The other results are left out here. An entry can have further records. The records of an entry seem to repeat one measurement (runs, samples, wells or individuals). Brackets tell where a record comes from. Letters count within one entry.
